Whole data set: some 33,000 sequences, median “E-score (-0.5 to 0.5)” near -0.053, cut for the highest 2% near 0.37. The list shows a part of the results.
target: Hap1 (UniProt P0CE41); test: PBM E-score (8-mer binding enrichment) (E-score (-0.5 to 0.5)); higher = stronger / more preferred TF binding; most listed sequences are background and not binding sites; conditions: protein concentration: 200 nM; construct: GST-DNA-binding domain
Procedure, shortened: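 Each ungapped eight-base word and its reverse complement, pooled, received an E-score from the Universal PBM Analysis Suite. Underlying scans, normalised with masliner, recorded fluorescent anti-GST bound to GST-tagged yeast transcription factors. These were applied at about 100-200 nM to universal all-10-mer Agilent arrays double-stranded by primer extension.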

Chain of UniProt P0CE41 (P0CE41 whole entry, the tested form may be a part): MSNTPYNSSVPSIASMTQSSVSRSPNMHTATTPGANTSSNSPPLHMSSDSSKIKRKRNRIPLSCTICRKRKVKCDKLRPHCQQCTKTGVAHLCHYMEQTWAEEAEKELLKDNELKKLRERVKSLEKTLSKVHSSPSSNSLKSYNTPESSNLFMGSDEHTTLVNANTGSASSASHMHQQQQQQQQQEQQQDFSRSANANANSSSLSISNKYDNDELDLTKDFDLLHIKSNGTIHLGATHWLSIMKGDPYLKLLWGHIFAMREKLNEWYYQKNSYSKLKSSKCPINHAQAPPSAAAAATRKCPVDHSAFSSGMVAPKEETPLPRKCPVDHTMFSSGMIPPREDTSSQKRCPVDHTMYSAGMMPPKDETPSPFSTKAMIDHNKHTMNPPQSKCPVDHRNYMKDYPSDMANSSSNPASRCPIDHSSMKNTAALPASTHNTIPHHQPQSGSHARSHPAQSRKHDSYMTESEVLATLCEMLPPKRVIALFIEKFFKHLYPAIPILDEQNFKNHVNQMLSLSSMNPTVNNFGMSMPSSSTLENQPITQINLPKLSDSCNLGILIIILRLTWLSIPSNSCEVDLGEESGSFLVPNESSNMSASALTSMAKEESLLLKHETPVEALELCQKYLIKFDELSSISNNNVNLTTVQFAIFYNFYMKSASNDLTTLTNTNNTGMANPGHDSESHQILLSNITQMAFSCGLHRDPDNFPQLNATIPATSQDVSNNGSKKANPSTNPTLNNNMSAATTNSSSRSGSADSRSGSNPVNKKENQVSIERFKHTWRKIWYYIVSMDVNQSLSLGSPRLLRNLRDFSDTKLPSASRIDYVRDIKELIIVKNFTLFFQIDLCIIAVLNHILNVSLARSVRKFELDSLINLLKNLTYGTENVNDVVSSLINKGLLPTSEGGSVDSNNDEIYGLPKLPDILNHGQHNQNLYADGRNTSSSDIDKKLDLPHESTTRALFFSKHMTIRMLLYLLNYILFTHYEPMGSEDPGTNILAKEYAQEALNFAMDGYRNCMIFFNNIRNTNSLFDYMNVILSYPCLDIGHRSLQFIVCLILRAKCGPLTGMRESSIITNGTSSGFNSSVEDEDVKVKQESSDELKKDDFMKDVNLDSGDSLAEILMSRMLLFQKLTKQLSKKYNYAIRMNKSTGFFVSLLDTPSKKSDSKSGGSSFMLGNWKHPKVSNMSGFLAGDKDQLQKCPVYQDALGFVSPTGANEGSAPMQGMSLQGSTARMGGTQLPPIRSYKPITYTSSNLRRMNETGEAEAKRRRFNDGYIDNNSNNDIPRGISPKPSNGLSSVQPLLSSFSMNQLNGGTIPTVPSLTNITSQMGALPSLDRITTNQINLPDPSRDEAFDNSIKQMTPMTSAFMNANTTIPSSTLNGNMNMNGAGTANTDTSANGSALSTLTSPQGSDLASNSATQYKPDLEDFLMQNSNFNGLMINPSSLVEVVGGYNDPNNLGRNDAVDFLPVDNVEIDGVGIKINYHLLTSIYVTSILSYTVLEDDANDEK

In order of rising “PBM E-score” value:
1. ACGTTTAG  -0.359
2. ACCCTATA  -0.306
3. TCACGAGA  -0.298
4. CTGAAGGC  -0.295
5. ACGTTCAG  -0.278
6. AATTTACA  -0.277
7. CCTGGGAC  -0.271
8. ACACGTTA  -0.267
9. AACGATGC  -0.264
10. ATGGTATA  -0.254
11. CTATAACA  -0.249
12. AGGCTTAT  -0.234
13. CGTCTCAA  -0.225
14. CTGTTGCC  -0.223
15. TGATGCAA  -0.223
16. ACCATAGC  -0.223
17. GCTTACGA  -0.222
18. AGCTCCTC  -0.219
19. GCACCAGA  -0.207
20. ACAGGATC  -0.206
21. CACCTCCA  -0.206
22. CACTCCTG  -0.202
23. CCCCTCCA  -0.198
24. GCTATACA  -0.197
25. ATGGGAAA  -0.193
26. CCACATGA  -0.19
27. ATAGCCTA  -0.189
28. GCCCTCAC  -0.183
29. AACCTCTG  -0.182
30. GTTGGCTA  -0.181
31. AGCCAGTA  -0.178
32. ATTCTAAC  -0.177
33. CTGTTCGA  -0.175
34. CTACAGGA  -0.173
35. CATGGGTA  -0.172
36. AATAACCA  -0.17
37. ACGTATAT  -0.168
38. GTCTTAGA  -0.162
39. GTCTGGTA  -0.161
40. TACAGCTA  -0.159
41. AGGGACTG  -0.157
42. CAGCTGGG  -0.156
43. ACGATTAG  -0.153
44. CACGTAAG  -0.153
45. ATAGTCAG  -0.152
46. CTTATCAC  -0.151
47. TCCACGAA  -0.146
48. CTCAATGC  -0.145
49. TCTACCCA  -0.144
50. ACATGAAT  -0.142
51. ATAACATC  -0.142
52. ACAATGAT  -0.141
53. AACAAGTA  -0.139
54. CACTCCAA  -0.136
55. ACTGGGTC  -0.135
56. AGTTTCAA  -0.135
57. GTTCAATA  -0.134
58. CAATAGGG  -0.133
59. CCCCTTAC  -0.132
60. GAAAGTCA  -0.13
61. CTTTCTTA  -0.125
62. GTGTCTTA  -0.121
63. ACGATGGG  -0.119
64. TAATCAGA  -0.119
65. ATGATAGC  -0.119
66. ACTGAAGC  -0.119
67. AATGCACT  -0.118
68. ATTGACAA  -0.118
69. CGTGCAAC  -0.117
70. GCATAGCC  -0.114
71. CGTATGAC  -0.112
72. GAATAGTC  -0.111
73. CCCCACGA  -0.11
74. GCAAAAGA  -0.107
75. ATTCCATC  -0.106
76. AAATGATC  -0.105
77. ACATTCAG  -0.104
78. ATCAGATC  -0.102
79. GCCAATTA  -0.102
80. GATGGTAC  -0.099
81. ACTACGCC  -0.098
82. AACGCGAC  -0.0971
83. ATCTGGTC  -0.0965
84. AGTACGCG  -0.0938
85. AAAGATAA  -0.0925
86. CGTGAAAC  -0.0905
87. CCAGCAAA  -0.0904
88. AGGAAACT  -0.0902
89. AAATTTGC  -0.0874
90. ACCATAGT  -0.0861
91. ATGATTAC  -0.0853
92. GAAGTGAC  -0.0852
93. ATGTTGAA  -0.0843
94. AGCACACT  -0.0831
95. CTTACCAC  -0.0818
96. GTGAGGAA  -0.0809
97. ATGCAAAG  -0.0808
98. AATACAAC  -0.0796
99. AAGAATTA  -0.0784
100. GGCTCGAA  -0.0746
101. AACGAGTA  -0.0745
102. CAAAAGTC  -0.0737
103. GTCTAGAA  -0.0734
104. CGACTTGC  -0.0708
105. AAAAGCAC  -0.0705
106. AAATACTA  -0.0697
107. TGGCGCCA  -0.0689
108. ATATAAAC  -0.0674
109. CATTTCAC  -0.0671
110. AAAGCCCA  -0.0645
111. CTCACGTC  -0.0616
112. GACAAACA  -0.0573
113. CATGAGGA  -0.0511
114. ATAATCAG  -0.0499
115. CCATTGTA  -0.0491
116. GTAATAGA  -0.0486
117. GTTGCGAA  -0.0486
118. AAAGAAAA  -0.0471
119. CAATTGTA  -0.0426
120. CCCAATTA  -0.0391
121. CGTGTGTC  -0.0353
122. AAGATCCA  -0.0332
123. CAATAGCA  -0.0331
124. CACGTGCG  -0.0329
125. TACAAGCA  -0.03
126. GGATGCGA  -0.0284
127. AAGTGATT  -0.0267
128. CATCTGCC  -0.0264
129. AAGCCTGC  -0.0231
130. ATCAAACC  -0.0217
131. TGCGCCAA  -0.0214
132. CTAACGAA  -0.0184
133. CCCTCCCA  -0.0175
134. AACAGATC  -0.0165
135. ACCTAGCG  -0.0103
136. AGTATACG  -0.00941
137. CGCCATCC  -0.00934
138. AATACAGG  -0.00816
139. GCGTAATA  -0.00778
140. AAATAAAA  -0.00749
141. GAAACGAA  -0.00746
142. TATTTAGA  -0.00676
143. GATGAAGC  -0.00464
144. CAGGACCG  -0.00407
145. GAGGAATC  -0.00259
146. CGAAGGGC  -0.00221
147. AAAAATTC  -3e-05
148. AAACGAGT  0.00304
149. AGACTACC  0.00543
150. GACTTTTA  0.00762
151. ACAATAAT  0.00982
152. AGACAGCG  0.0184
153. ATAGCTGG  0.0193
154. CGTGGATA  0.0211
155. CCGTGCCC  0.0252
156. GAGGACCC  0.0332
157. ATCCAGTC  0.0348
158. CCGCTTTC  0.0385
159. GCTGCTAA  0.0391
160. GTAAACAA  0.0424
161. GTGTTTAA  0.0435
162. TATCCCCA  0.0486
163. GGGCTTCA  0.0517
164. AGCCGCAA  0.0534
165. CGCACGGC  0.0537
166. ACGCAAAT  0.0549
167. AAAATATG  0.0591
168. GGGTGAAC  0.0631
169. CTCCGCAC  0.0685
170. CCATTATC  0.0766
171. AAGCGGTC  0.0865
172. CAAACGCG  0.0937
173. CTGCCGTC  0.101
174. GACATTAA  0.102
175. ATGCTTCG  0.103
176. CAAAATTC  0.103
177. ATTACCTC  0.105
178. AGATTCCC  0.11
179. ACGCGCCC  0.11
180. GAAATCCA  0.11
181. CGCTCTCC  0.122
182. ATAGACCG  0.123
183. ATAGCTCC  0.124
184. ACAACCCC  0.128
185. CTTCGCTC  0.13
186. AATTAACG  0.131
187. GCGGTACA  0.134
188. CGACCTCG  0.134
189. GGAAAGAA  0.135
190. TAGATATA  0.137
191. ACATTGTC  0.138
192. AAACCCAC  0.147
193. GGTTAATA  0.154
194. CGGGCTCC  0.155
195. CCGCTGTC  0.156
196. ATAGCCCG  0.173
197. GGCCTTAC  0.179
198. CGAGTCCC  0.182
199. GACTCGGC  0.186
200. GTCGGTAA  0.198
201. GCGTTAGA  0.198
202. ATTCCTCC  0.205
203. CCCGAAAC  0.208
204. CGGGGTCA  0.216
205. ATACGCGG  0.217
206. TGCCGACA  0.223
207. GGGTTACC  0.227
208. AGGGGCGG  0.235
209. TCGGGCAA  0.277
210. CCAGTCCG  0.278
211. AGTCGGCC  0.289
212. TATACCGA  0.289
213. CGGGACTA  0.313
214. ACCCGGAA  0.346
215. CGGGCGGA  0.356
216. CATCCCCG  0.356
217. GGGTTTAA  0.387
218. CTTCCGGA  0.404
219. ATAACGGA  0.414

Reference: the supplement of paper PMC3334620
